Results taken from the supplement of paper PMC12217912.
This is one part of the list. Sequences were assembled here from the parent chain. Inactive controls read about 0.05.

B1: TEV protease; numbered along this chain (parent)
chain: MGESLFKGPRDYNPISSSICHLTNESDGHTTSLYGIGFGPFIITNKHLFRRNNGTLVVQSLHGVFKVKDTTTLQQHLVDGRDMIIIRMPKDFPPFPQKLKFREPQREERICLVTTNFQTKSMSSMVSDTSCTFPSGDGIFWKHWIQTKDGQCGSPLVSTRDGFIVGIHSASNFTNTNNYFTSVPKNFMELLTNQEAQQWVSGWRLNADSVLWGGHKVFMVKPEEPFQPVKEATQL

Variants of: B1
Assay: raw area under fraction-flipped curve 0-4 h after induction (AUC4h, not background-subtracted), DNA-recorder readout of cleavage of the substrate (dimensionless); higher = more cleavage of the substrate by the protease variant
Conditions: temperature: 34 °C; time window: 0-4 h after rhamnose induction
Method: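 In vivo DNA recorder in E. coli TOP10(DE3) ΔrhaA at 34 °C. Each TEVp single-site mutant (parent TEVp 0) is paired with a single-site variant of the 7-mer TEVs (canonical ENLYFQ|S). The substrate sits between flexible linkers in a Bxb1-sfGFP-TEVs-SsrA fusion, so cleavage stabilises Bxb1 and speeds flipping of a recombination array, read by NGS. The value is the raw area under the fraction-flipped curve over 0-4 h after rhamnose induction (AUC4h), with ≥20 reads per time point. It is not background-subtracted; inactive controls average about 0.047.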
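Note: Bxb1 expression induced with 0.2% (w/v) L-rhamnose at OD600 near 0.5, cultures sampled hourly, flipped fraction per protease–substrate barcode pair counted by paired-end Illumina sequencing.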

Variant | area with substrate ENLYFAS | area with substrate ENLYFDS | area with substrate ENLYFES | area with substrate ENLYFFS | area with substrate ENLYFGS | area with substrate ENLYFHS | area with substrate ENLYFIS | area with substrate ENLYFKS | area with substrate ENLYFMS | area with substrate ENLYFNS | area with substrate ENLYFPS | area with substrate ENLYFSS | area with substrate ENLYFVS | area with substrate ENLYFYS | area with substrate ENLYFCS | area with substrate ENLYFLS | area with substrate ENLYFRS | area with substrate ENLYFTS | area with substrate ENLYFWS
F95P | 0.048 | 0.0435 | 0.0476 | 0.0459 | 0.057 | 0.0383 | 0.0547 | 0.0489 | 0.0345 | 0.06 | 0.061 | 0.0386 | 0.0325 | 0.0595 |  |  |  |  | 
Q105V | 0.0677 |  | 0.0873 | 0.0724 |  |  | 0.0531 | 0.0576 |  | 0.0578 | 0.0677 | 0.0624 |  | 0.0617 | 0.0485 | 0.0391 | 0.0587 | 0.0604 | 
A170D | 0.0559 |  | 0.0537 |  |  |  |  |  | 0.0492 | 0.0628 |  |  |  |  |  |  | 0.0511 |  | 
T233F | 0.0432 |  | 0.0621 | 0.0813 |  | 0.0381 | 0.0614 |  | 0.109 | 0.0434 | 0.0648 |  | 0.0566 |  | 0.0467 | 0.0765 | 0.0477 | 0.0431 | 
P89I | 0.0528 |  | 0.0489 | 0.0742 |  |  | 0.0466 | 0.0468 | 0.0404 | 0.0518 |  | 0.0495 | 0.048 |  |  |  | 0.0526 | 0.0463 | 
K185Y | 0.0473 | 0.0339 | 0.062 | 0.0815 | 0.0779 | 0.0619 | 0.0461 | 0.0525 | 0.0607 |  | 0.0792 | 0.0546 |  | 0.0508 | 0.0623 | 0.0491 | 0.0704 | 0.0668 | 0.0483
N177R | 0.0631 |  | 0.0554 |  |  |  | 0.0841 |  | 0.0693 | 0.0627 | 0.0734 |  |  |  |  |  |  |  | 0.0606
V229W | 0.0637 | 0.0543 | 0.0672 | 0.0667 | 0.0506 |  | 0.0561 | 0.0614 | 0.0719 | 0.0618 | 0.0518 |  | 0.0511 | 0.0688 | 0.0394 | 0.0687 | 0.0658 | 0.0563 | 0.0586
T181W | 0.0644 |  |  | 0.0704 |  | 0.0525 | 0.0584 | 0.0717 | 0.0303 | 0.006 |  |  | 0.0517 |  | 0.06 |  |  | 0.0519 | 
S182D | 0.0651 |  | 0.0566 | 0.062 | 0.0499 |  |  |  | 0.0623 | 0.0589 | 0.0592 |  |  |  | 0.0638 |  |  | 0.0364 | 0.0582
F101M | 0.0644 | 0.0613 | 0.0542 | 0.0725 | 0.0536 |  | 0.0663 |  | 0.0311 | 0.0685 | 0.0596 | 0.062 | 0.0538 | 0.0638 | 0.0515 | 0.0503 | 0.0834 | 0.0629 | 
T233I | 0.0597 |  |  |  | 0.0329 | 0.0754 | 0.0494 |  |  | 0.0761 |  |  | 0.0464 |  | 0.0687 | 0.0717 |  | 0.0617 | 
E108K | 0.0356 |  |  | 0.0704 |  |  | 0.0515 | 0.0683 | 0.05 | 0.0581 |  | 0.0639 | 0.0676 | 0.0521 | 0.0347 |  | 0.0458 | 0.0777 | 
I85S | 0.0505 |  | 0.0455 | 0.057 | 0.0455 |  | 0.0555 |  | 0.048 |  | 0.0553 |  | 0.0523 | 0.0544 |  |  | 0.0463 |  | 0.0484
A207F | 0.0536 |  | 0.0609 |  |  |  | 0.057 | 0.0525 | 0.0631 |  | 0.0457 |  | 0.0586 | 0.0563 | 0.0592 | 0.057 | 0.0493 | 0.0559 | 
P9S | 0.0601 |  |  | 0.0858 |  |  | 0.0612 |  | 0.0653 |  | 0.0664 |  | 0.054 | 0.0627 | 0.0743 |  |  | 0.06 | 

Variant | area with substrate ENLYFAS | area with substrate ENLYFDS | area with substrate ENLYFES | area with substrate ENLYFFS | area with substrate ENLYFGS | area with substrate ENLYFHS | area with substrate ENLYFIS | area with substrate ENLYFKS | area with substrate ENLYFMS | area with substrate ENLYFNS | area with substrate ENLYFPS | area with substrate ENLYFSS | area with substrate ENLYFVS | area with substrate ENLYFYS | area with substrate ENLYFCS | area with substrate ENLYFLS | area with substrate ENLYFRS | area with substrate ENLYFTS | area with substrate ENLYFWS
Q227H | 0.0569 |  | 0.0691 | 0.068 |  | 0.0952 | 0.0623 |  | 0.0649 |  |  |  |  | 0.0649 |  | 0.0505 |  | 0.0632 | 
P89G | 0.0566 |  |  | 0.0649 |  |  | 0.0668 |  |  |  | 0.0623 | 0.0567 |  |  |  |  |  |  | 
W141K | 0.0573 | 0.0544 |  | 0.0666 |  |  | 0.051 | 0.0611 | 0.0469 | 0.0581 | 0.051 |  | 0.0233 |  | 0.0381 |  | 0.0476 | 0.0569 | 
G213E | 0.0471 | 0.0519 |  |  |  |  | 0.0425 | 0.0719 | 0.0474 |  | 0.0571 |  | 0.0597 | 0.0549 |  |  |  | 0.06 | 
I167Q | 0.0908 | 0.0485 | 0.0818 |  |  | 0.067 | 0.046 |  | 0.0614 |  |  |  | 0.0625 | 0.0589 |  |  |  | 0.0645 | 0.0506
F92Q | 0.0641 | 0.0481 | 0.0608 | 0.0442 | 0.0523 | 0.0556 | 0.0504 | 0.0587 | 0.0685 | 0.0753 | 0.0754 | 0.0749 |  |  |  |  | 0.0595 | 0.0285 | 0.0599
W203T | 0.057 |  | 0.0555 |  |  |  | 0.0656 | 0.0649 | 0.0591 | 0.0534 | 0.056 | 0.065 | 0.0425 |  |  |  | 0.0613 | 0.0568 | 0.051
F101A | 0.0605 |  |  |  |  |  |  |  |  |  | 0.0329 |  |  |  |  |  | 0.0271 |  | 
Y34D | 0.056 | 0.0485 | 0.0558 | 0.059 |  |  |  |  | 0.0538 |  | 0.0548 |  | 0.0625 | 0.0431 |  |  |  | 0.0811 | 0.0552
Q151V | 0.063 | 0.0695 | 0.0645 | 0.0688 |  | 0.0625 | 0.065 | 0.0735 | 0.0815 | 0.047 | 0.0502 |  | 0.0498 |  | 0.0655 |  | 0.0668 | 0.0454 | 0.0499
D161N | 0.0586 |  | 0.0571 | 0.0699 | 0.0603 | 0.0424 | 0.0633 | 0.0536 | 0.0553 |  | 0.0574 |  |  | 0.0562 |  | 0.044 | 0.0292 |  | 0.0555
A196P | 0.0599 |  | 0.0535 | 0.0931 |  | 0.0488 | 0.0518 |  | 0.0282 |  |  |  | 0.0724 |  |  |  | 0.0712 | 0.0577 | 
F65K | 0.0516 |  | 0.125 | 0.0652 | 0.055 | 0.0553 | 0.0546 |  | 0.0611 | 0.0617 |  |  |  | 0.047 |  | 0.05 |  |  | 0.045
N206D | 0.0621 | 0.0462 | 0.0687 | 0.0665 |  |  | 0.0577 |  | 0.0763 | 0.0757 | 0.0532 | 0.0626 | 0.0566 | 0.0252 | 0.062 | 0.0694 | 0.0644 | 0.0654 | 0.0531
S135T | 0.0513 | 0.0631 |  | 0.0856 |  | 0.056 | 0.0599 | 0.0585 | 0.0557 |  | 0.0617 | 0.0615 | 0.0446 | 0.0563 |  | 0.0676 |  |  | 0.0627
